Patent US20230192839A1, “ANTIBODIES HAVING CONDITIONAL AFFINITY AND METHODS OF USE THEREOF” (PFIZER INC., priority 2017, published 2023)
Substitutions are numbered along the chain they refer to. Values belong to the molecule of their own block, whether it stands above or below them.

Legend:
[1] = test system: human epidermal growth factor receptor (EGFR); test: Biacore SPR binding kinetics of anti-EGFR scFv-Fc clones with or without 10 µM MTX; conditions: 37° C.; for koff, kinetics toward antigen with 0 µM MTX / kon, kinetics toward antigen with 0 µM MTX / koff, kinetics toward antigen with 10 µM MTX / kon, kinetics toward antigen with 10 µM MTX: pH 7.4, scFv-Fc
Description: All binding kinetics analysis was performed on label-free Biacore surface plasmon biosensors (Biacore T200™ from GE Life Sciences) at 37° C. in 10 mM Hepes pH 7.4, 150 mM NaCl, 0.05% Tween-20 (HBST+), with or without 10 µM MTX. The Biacore data were processed in Biacore T200 Evaluation Software, and the data were double-referenced (Myszka, 1999, J Mol Recognit 12(5):279-284) and fit globally to a simple Langmuir with mass transport model to determine the equilibrium dissociation constant, KD, from the ratio of the kinetic rate constants (KD = koff/kon). In some cases the binding of antigen was very low (or not detectable) in the presence of 10 µM MTX and as a result kinetic rate constants could not be accurately determined. In these cases, a KD (or KD limit) was estimated based on the binding response at the highest analyte concentration tested or based on the typical limit of detection for a Biacore T200. […]

human CD33 = test: Biacore SPR binding kinetics of anti-CD33 scFv-Fc clones with or without 10 µM MTX; conditions: 37° C.
Source text: The first 4 rounds of panning used biotinylated CD33 antigen captured on streptavidin or neutravidin coated 96-well plates. […] 1536 clones were randomly chosen from the 4th and 5th round of panning against the CD33 antigen and their binding specificity determined by phage ELISA. Clones that specifically bound to CD33 were sequenced and all unique clones were subjected to a phage competition ELISA to assess their relative affinities to CD33 and sensitivity to MTX by measuring their binding strengths in the presence or absence of 10 µM (micromolar) MTX (i.e. in 0 or 10 µM MTX).
All binding kinetics analysis was performed on label-free Biacore surface plasmon biosensors (Biacore T200™ from GE Life Sciences) at 37° C. in 10 mM Hepes pH 7.4, 150 mM NaCl, 0.05% Tween-20 (HBST+), with or without 10 µM MTX. The Biacore data were processed in Biacore T200 Evaluation Software, and the data were double-referenced (Myszka, 1999, J Mol Recognit 12(5):279-284) and fit globally to a simple Langmuir with mass transport model to determine the equilibrium dissociation constant, KD, from the ratio of the kinetic rate constants (KD = koff/kon). In some cases the binding of antigen was very low (or not detectable) in the presence of 10 µM MTX and as a result kinetic rate constants could not be accurately determined. In these cases, a KD (or KD limit) was estimated based on the binding response at the highest analyte concentration tested or based on the typical limit of detection for a Biacore T200.

[2] = 10 µM MTX, pH 7.4, koff/kon, or estimated from binding response / limit of detection for weak interactions, read-out: KD, kinetics toward antigen with 10 µM MTX

B1: P08_D06: anti-EGFR clone with conditional affinity; VH SEQ ID NO: 123, VL SEQ ID NO: 124; also as scFv in CAR (antibody, V domains shown)
VH: QVQLVESGGGLVQAGGSLRLSCAASRRSSRSWAMHWVRQAPGKGLEWVAVISYDGRLKYYADSVKGRFTISRDNAEYLVYLQMNSLRAEDTAVYYCAADDDGDVYAGYSYGGFDYWGQGTLVTVSS
VL: QSVLTQPPSASGTPGQRVTISCSGSSSNIGRNYVYWYQQLPGTAPKLLIYRNDQRPSGVPDRFSGSKSGTSASLAISGLRSEDEADYYCAAWDDSLSGWVFGTGTKLTVL
modifications: Synthetic Antibody
notes: also as scFv in CAR
koff, kinetics toward antigen with 0 µM MTX [1]: 0.013 s⁻¹
kon, kinetics toward antigen with 0 µM MTX [1]: 71000 M⁻¹ s⁻¹
koff, kinetics toward antigen with 10 µM MTX ([1]; 10 µM MTX): 0.033 s⁻¹
kon, kinetics toward antigen with 10 µM MTX ([1]; 10 µM MTX): 24000 M⁻¹ s⁻¹

B4: P01_H04: anti-EGFR clone with conditional affinity; VH SEQ ID NO: 127, VL SEQ ID NO: 128 (antibody, V domains shown)
VH: QVQLVESGGGLVQAGGSLRLSCAASRRSSRSWAMHWVRQAPGKGLEWVAVISYDGRLKYYADSVKGRFTISRDNAEYLVYLQMNSLRAEDTAVYYCAADMDDMLSYYNSFDIWGQGTLVTVSS
VL: B1 VL with D53N
modifications: Synthetic Antibody
koff, kinetics toward antigen with 0 µM MTX [1]: 0.076 s⁻¹
kon, kinetics toward antigen with 0 µM MTX [1]: 85000 M⁻¹ s⁻¹
Kd [1, 2]: > 1800 nM

B5: P02_B03: anti-CD33 clone with conditional affinity; VH SEQ ID NO: 33, VL SEQ ID NO: 34 (antibody, V domains shown)
VH: QVQLVESGGGLVQAGGSLRLSCAASRRSSRSWAMHWVRQAPGKGLEWVAVISYDGRLKYYADSVKGRFTISRDNAEYLVYLQMNSLRAEDTAVYYCAADQDVGSVGNYYGNGMDVWGQGTLVTVSS
VL: QSVLTQPPSASGTPGQRVTISCSGSSSNIGSNYVNWYQQLPGTAPKLLIYRNNQRPSGVPDRFSGSKSGTSASLAISGLRSEDEADYYCAAWDDNPRWVFGTGTKLTVL
modifications: Synthetic Antibody
koff, kinetics toward antigen with 0 µM MTX (human CD33; 0 µM MTX, pH 7.4, scFv-Fc): 0.023 s⁻¹
kon, kinetics toward antigen with 0 µM MTX (human CD33; 0 µM MTX, pH 7.4, scFv-Fc): 140000 M⁻¹ s⁻¹
Kd (human CD33; [2]): > 340 nM

Second part, the molecule after the results:

koff, kinetics toward antigen with 0 µM MTX [1]: 0.071 s⁻¹
kon, kinetics toward antigen with 0 µM MTX [1]: 200000 M⁻¹ s⁻¹
koff, kinetics toward antigen with 10 µM MTX ([1]; 10 µM MTX): 0.073 s⁻¹
kon, kinetics toward antigen with 10 µM MTX ([1]; 10 µM MTX): 150000 M⁻¹ s⁻¹
B2: P08_E05: anti-EGFR reference clone, less than 2-fold MTX effect; VH SEQ ID NO: 131, VL SEQ ID NO: 132 (antibody, V domains shown)
VH: QVQLVESGGGLVQAGGSLRLSCAASRRSSRSWAMHWVRQAPGKGLEWVAVISYDGRLKYYADSVKGRFTISRDNAEYLVYLQMNSLRAEDTAVYYCAADGKGAAWSEVDEPDVWGQGTLVTVSS
VL: B1 VL with R31S, R51Q, D53N, W99L
modifications: Synthetic Antibody

koff, kinetics toward antigen with 0 µM MTX [1]: 0.022 s⁻¹
kon, kinetics toward antigen with 0 µM MTX [1]: 82000 M⁻¹ s⁻¹
koff, kinetics toward antigen with 10 µM MTX ([1]; 10 µM MTX): 0.13 s⁻¹
kon, kinetics toward antigen with 10 µM MTX ([1]; 10 µM MTX): 50000 M⁻¹ s⁻¹
B3: P15_F02: anti-EGFR clone with conditional affinity; VH SEQ ID NO: 135, VL SEQ ID NO: 136; also as scFv in CAR (antibody, V domains shown)
VH: B4 VH with D99A, M100R, D102V, M103D, L104G, Y106G, N108D, S109T, F110I, I112V
VL: QSVLTQPPSASGTPGQRVTISCSGSSSNIGRNYVYWYQQLPGTAPKLLIYSNNQRPSGVPDRFSGSKSGTSASLAISGLRSEDEADYYCAAWDDSLSGVWVFGTGTKLTVL
modifications: Synthetic Antibody
notes: also as scFv in CAR
